Out of some 48,000 compounds screened, about 550 (1.1%) were called active. Not shown: some 4% with an inconclusive outcome. Cut-off read from the data, not from the text of the source: active = potency below about 15 µM; inconclusive = mostly about 16 µM to 33 µM; inactive = weaker than that. This is one part of the list.
Target: Lysosomal acid glucosylceramidase (Homo sapiens) (UniProt P04062)
Test: Glucocerebrosidase;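 note: the screen sought inhibitors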
Conditions: purified enzyme, resorufin glucoside fluorescence (screen aimed at inhibitors), 20 min
Summary of the method: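 Wild-type enzyme at 0.2 nM final in 50mM citric acid/KH2PO4, 10mM sodium taurocholate, 0.01% tween-20, pH 5.9, with resorufin beta-D-glucopyranoside at 30 uM final. Compounds titrated, 20 min at RT, red fluorescence read; AC50 from titration.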
Potency is the fitted concentration of half-maximal effect.

Sequence of UniProt P04062 (P04062 whole entry, looked up): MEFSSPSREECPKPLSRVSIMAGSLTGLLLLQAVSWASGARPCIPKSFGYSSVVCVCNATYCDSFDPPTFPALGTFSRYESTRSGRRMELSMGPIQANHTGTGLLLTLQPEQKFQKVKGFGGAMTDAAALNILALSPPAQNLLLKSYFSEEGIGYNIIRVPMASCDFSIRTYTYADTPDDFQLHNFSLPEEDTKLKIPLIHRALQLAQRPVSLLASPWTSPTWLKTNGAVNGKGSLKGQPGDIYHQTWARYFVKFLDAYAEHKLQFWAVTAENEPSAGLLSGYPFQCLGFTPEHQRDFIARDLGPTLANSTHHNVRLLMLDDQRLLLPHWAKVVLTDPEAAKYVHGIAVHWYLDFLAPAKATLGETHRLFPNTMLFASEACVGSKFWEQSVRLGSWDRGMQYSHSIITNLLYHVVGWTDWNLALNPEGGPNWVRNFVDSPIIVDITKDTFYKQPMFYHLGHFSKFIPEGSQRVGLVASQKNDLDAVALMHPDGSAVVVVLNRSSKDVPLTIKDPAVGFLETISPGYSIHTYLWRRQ

Potency, inactive:
Cc1onc(-c2ccccc2)c1C(=O)Nc1cc(C(F)(F)F)ccc1N1CCOCC1 > 76.9 µM
CCCCNC(=O)CN1CCC2(O)CCCCC2C1c1ccccc1OC (stereo not given) > 76.9 µM
O=c1[nH]c2ccccc2c(=O)n1Cc1ccco1 > 76.9 µM
O=C(NCc1ccco1)C1CC(=O)N(CCc2ccccc2)C1 (stereo not given) > 76.9 µM
O=C(COc1ccc(Cl)cc1)Nc1nc(-c2cccs2)cs1 > 76.9 µM
Cc1c(C(=O)N2CC(C)OC(C)C2)sc2nc(-c3ccccc3)cn12 (stereo not given) > 76.9 µM
CCCCC(=O)Nc1cc2nn(-c3ccc(OC)cc3)nc2cc1C > 76.9 µM
Cc1ccc(-n2ncc3c(=O)n(CC(=O)NC4CCCC4)cnc32)cc1C > 76.9 µM
COC(=O)c1c(C)n(-c2ccccc2)c2ccc(O)cc12 > 76.9 µM
COc1ccccc1N1CCN(C(=O)C(C)N(c2ccc(C)c(C)c2)S(C)(=O)=O)CC1 (stereo not given) > 76.9 µM
COC(=O)c1ccccc1NC(=O)C1CCCC1 > 76.9 µM
COc1cc(NC(=O)CN(c2ccc(C)cc2)S(=O)(=O)c2c(C)n[nH]c2C)cc(OC)c1 > 76.9 µM
O=C(CCCCC(=O)NCc1cccs1)NCc1cccs1 > 76.9 µM
O=C1c2ccccc2C(=O)N1CCCn1c(=O)oc2ccccc21 > 76.9 µM
COC(=O)CC1C(=O)NC2CCCCC2N1C(=O)c1ccccc1 (stereo not given) > 76.9 µM
N#CC1=C(N)Oc2n[nH]c(-c3ccc(F)cc3)c2C1c1cccnc1 (stereo not given) > 76.9 µM
O=S(=O)(c1cccs1)N1CN(Cc2cccs2)c2nc3ccccc3nc21 > 76.9 µM
COc1cccc(NC(=O)C2CCN(c3ncccn3)CC2)c1 > 76.9 µM
CCCCOC(=O)c1ccc(NC(=O)c2cnccn2)cc1 > 76.9 µM
COc1ccc(C(O)c2nccn2Cc2ccccc2)cc1 (stereo not given) > 76.9 µM
O=C(CCC1CCCCC1=O)c1ccccc1 (stereo not given) > 76.9 µM
CCn1cc(C(=O)O)c(=O)c2cc(OC)ccc21 > 76.9 µM
CC(=NCc1ccco1)C1=C(O)c2ccccc2C1=O > 76.9 µM
COc1ccc(Nc2ncnc3c2cnn3Cc2ccccc2)cc1OC > 76.9 µM
COc1ccccc1N1CCN(C(CNS(=O)(=O)c2ccc(C)cc2)c2cccnc2)CC1 (stereo not given) > 76.9 µM
CCOc1ccc2nc(SCc3ccc(C(=O)OC)o3)[nH]c2c1 > 76.9 µM
COC(=O)CSc1nc2sc3c(c2c(=O)n1-c1ccccc1)CCN(C)C3 > 76.9 µM
CCOC(=O)C1CCCN(c2nc3ccccc3nc2C(C#N)C(=O)NCc2ccccc2)C1 (stereo not given) > 76.9 µM
Cc1c(Cl)cnc(NC(=O)COC(=O)C(NC(=O)c2ccco2)C(C)C)c1Cl (stereo not given) > 76.9 µM
Cc1ccc(C)n1-c1ccc(-c2nnc3n2CCCCC3)s1 > 76.9 µM
CNC(=O)CSc1nnc(-c2cccnc2)n1CCc1ccccc1 > 76.9 µM
c1ccc2sc(NC3=NCN(Cc4ccc5c(c4)OCO5)CN3)nc2c1 > 76.9 µM
COc1cccc(-n2nnc3c(=O)n(Cc4ccc(C)cc4)cnc32)c1 > 76.9 µM
CCn1c(SCC(=O)Nc2ccc3c(c2)OCCO3)nnc1-c1ccccn1 > 76.9 µM
O=C(NCCCN1CCOCC1)C(C(=O)c1ccccc1)n1ccccc1=O (stereo not given) > 76.9 µM
CCOC(=O)CSc1nnc(C2CCCCC2)n1C > 76.9 µM
COc1ccc(C(=O)Nc2ccccc2C(=O)NCc2ccco2)cc1OC > 76.9 µM
CCOC(=O)Cn1nc(-c2ccccc2)ccc1=O > 76.9 µM
Fc1ccc2nc(Nc3nc4c(s3)CCCC4)sc2c1 > 76.9 µM
CCOC(=O)C1CCCN(C(=O)c2cc3c(=O)n4cccc(C)c4nc3n2C)C1 (stereo not given) > 76.9 µM
Nn1c(Cc2cccc3ccccc23)nnc1SCC(=O)NC1CCS(=O)(=O)C1 (stereo not given) > 76.9 µM
O=C(NCCc1nc2ccccc2[nH]1)c1ccco1 > 76.9 µM
N#Cc1c(N)nc2c(c1-c1ccncc1)CCCCC2 > 76.9 µM
COc1ccc(Cn2nnnc2C(c2ccccn2)N2CCN(c3cc(Cl)ccc3C)CC2)cc1 (stereo not given) > 76.9 µM
Cc1nc2ccc(NC(=O)NCc3ccco3)cc2s1 > 76.9 µM
Cc1ccc(SCCC(=O)N2CCCC2)cc1 > 76.9 µM
O=S(=O)(c1ccc(S(=O)(=O)n2cnc3ccccc32)cc1)N1CCCCCC1 > 76.9 µM
Cc1cccc(CSc2nnc(-c3ccco3)n2C)c1 > 76.9 µM
Cc1cccc(C)c1NC(=O)N1C2CCCC1CC(NC(=O)C(C)(C)C)C2 (stereo not given) > 76.9 µM
COc1cccc(OCC(=O)Nc2ccccc2NC(C)=O)c1 > 76.9 µM
CCn1cnc2sc(C(=O)Nc3ccc4c(c3)OCO4)c(C)c2c1=O > 76.9 µM
Oc1ccccc1-c1nnc(SCCN2CCOCC2)n1Cc1ccccc1
COc1ccc(CCCc2nnc(SCC(=O)Nc3nc(C)cs3)n2C)cc1C > 76.9 µM
Cc1nc2cccc(C(=O)NC3CCCCC3)c2o1 > 76.9 µM
Cc1n[nH]c(C)c1S(=O)(=O)N1CCOCC1 > 76.9 µM
Cc1cccc(-n2c(Cc3ccccc3)nnc2SCC(=O)N2CCOCC2)c1 > 76.9 µM
O=C(Nc1ccc(Br)cc1F)c1sccc1-n1cccc1 > 76.9 µM
CCOC(=O)CCCn1nc(C)n2c(cc3sccc32)c1=O > 76.9 µM
c1ccc(-n2ncc3c(NCc4ccco4)ncnc32)cc1 > 76.9 µM
O=C(c1cnc2sccn2c1=O)N1CCc2ccccc2C1 > 76.9 µM

From PubChem BioAssay AID360 (National Center for Advancing Translational Sciences (NCATS), 2006)
